Out of some 310,000 compounds screened, about 2,200 (0.71%) showed an effect of 50% or more. Effects have a minus sign here. The list shows a part of the results.
These compounds were tested against human ether-à-go-go-related gene (hERG) potassium channel (human, UniProt Q12809) (assay: primary screen, population patch clamp on CHO cells stably expressing hERG).
human ether-à-go-go-related gene (hERG) potassium channel, sequence (Q12809 whole entry, looked up): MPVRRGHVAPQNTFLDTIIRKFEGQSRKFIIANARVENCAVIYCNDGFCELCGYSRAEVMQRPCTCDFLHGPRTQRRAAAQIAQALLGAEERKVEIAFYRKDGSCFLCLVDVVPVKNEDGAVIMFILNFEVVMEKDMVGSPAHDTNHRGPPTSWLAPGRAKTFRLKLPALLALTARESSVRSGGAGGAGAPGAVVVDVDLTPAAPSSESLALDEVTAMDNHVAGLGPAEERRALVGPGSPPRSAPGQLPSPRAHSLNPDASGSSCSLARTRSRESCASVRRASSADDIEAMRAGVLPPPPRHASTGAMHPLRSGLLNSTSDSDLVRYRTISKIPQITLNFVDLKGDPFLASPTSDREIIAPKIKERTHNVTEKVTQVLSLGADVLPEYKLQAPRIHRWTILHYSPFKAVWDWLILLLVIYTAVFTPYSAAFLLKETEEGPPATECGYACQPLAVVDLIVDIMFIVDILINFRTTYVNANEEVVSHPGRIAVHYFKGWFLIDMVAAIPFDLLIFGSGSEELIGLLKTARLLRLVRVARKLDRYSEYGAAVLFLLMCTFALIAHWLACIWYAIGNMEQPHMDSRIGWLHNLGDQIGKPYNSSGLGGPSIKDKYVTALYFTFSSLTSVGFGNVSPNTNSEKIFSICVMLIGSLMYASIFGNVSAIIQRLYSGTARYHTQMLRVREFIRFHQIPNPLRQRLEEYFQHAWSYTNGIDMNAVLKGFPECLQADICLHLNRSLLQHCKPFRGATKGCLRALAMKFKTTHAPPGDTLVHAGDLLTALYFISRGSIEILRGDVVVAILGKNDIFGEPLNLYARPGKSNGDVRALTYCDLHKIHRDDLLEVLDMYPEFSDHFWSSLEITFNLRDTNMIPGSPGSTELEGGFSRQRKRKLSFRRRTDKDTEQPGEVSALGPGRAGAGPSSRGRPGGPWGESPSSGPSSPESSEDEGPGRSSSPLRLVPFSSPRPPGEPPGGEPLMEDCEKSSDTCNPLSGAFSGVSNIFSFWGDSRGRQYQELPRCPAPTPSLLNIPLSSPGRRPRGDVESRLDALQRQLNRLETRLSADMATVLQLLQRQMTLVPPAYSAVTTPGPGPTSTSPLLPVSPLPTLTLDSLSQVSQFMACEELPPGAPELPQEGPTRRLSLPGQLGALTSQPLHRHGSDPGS

Compound	hERG current change (%, negative = inhibition) at 1uM
O=C(Nc1ccccc1N1CCOCC1)C1CCN(S(=O)(=O)c2ccc(F)cc2)CC1	5.77%
N=c1c(S(=O)(=O)c2ccc(Cl)cc2)cc2c(=O)n3ccccc3nc2n1CCN1CCOCC1	-13.1%
Cc1ccccc1NC(=O)c1cc(S(=O)(=O)N2CCOCC2)cs1	8.1%
COc1ccc(S(=O)(=O)N2CCOCC2)cc1NC(=O)COc1ncnc2ccccc12	12.4%
O=C(Nc1cccnc1Cl)c1cc(-c2cccc(O)c2)on1	4.37%
COC(=O)C1CCN(C(=O)c2cc(OC)c(OC)c(OC)c2)CC1	17.5%
O=C(O)c1occc1CSc1ccccc1	20.3%
O=C(Cc1ncc(C(F)(F)F)cc1Cl)N1CCN(c2cccc(Cl)c2)CC1	-7.4%
Cc1cc(/C=C2\C(=N)N3N=CSC3=NC2=O)c(C)n1Cc1ccccc1	1.22%
O=C(c1cc(-c2ccc(O)cc2)on1)N1CCCCCC1	8.87%
O=C(Nc1cccc(C(F)(F)F)c1)c1cc[n+]([O-])cc1	15.9%
COCCCn1nnnc1SCC(=O)Nc1nc2ccccc2s1	11.6%
CCOC(=O)c1c(NC(=O)CN2C(=O)NC3(CCCCCC3)C2=O)sc(C)c1-c1ccc(C)cc1	7.74%
CC1CCN(C(=O)COC(=O)/C=C/c2ccc(Br)o2)CC1	10.5%
COc1cc(CN2CCCCCC2)cc(Br)c1O	16.3%
Cc1ccc(N2CCN(S(=O)(=O)c3nnc(NC(=O)c4ccccc4)s3)CC2)cc1	17.1%
O=C1c2cc(S(=O)(=O)NCCO)ccc2-c2ccc(S(=O)(=O)NCCO)cc21	6.34%
CC1CC(N(C(=O)c2ccco2)c2ccccc2)c2ccccc2N1C(=O)c1ccco1 (centres unmarked)	17.3%
O=C1OCC(c2ccccc2)=C1c1ccc(S(=O)(=O)N2CCOCC2)s1	3.09%
CCOC(=O)c1c(-c2ccccc2)oc2ccc(OCC(=O)O)cc12	6.24%
O=C(COc1ccc(Br)cc1)NCCNC(=O)c1cccnc1	5.89%
CSc1ccccc1C(=O)Nc1c(C)cccc1C	10.9%

Compound	hERG current change (%, negative = inhibition) at 1uM
Cc1cc(C)cc(NC(=O)COC(=O)CCc2ccc(S(=O)(=O)N3CCOCC3)cc2)c1	5.96%
CCCOc1ccc(C2/C(=C(\O)c3c(C)[nH]c(C(=O)OC)c3C)C(=O)C(=O)N2CCN(C)C)cc1 (centres unmarked)	10.9%
COc1ccc(-n2nc3c(c2NC(=O)Cc2cccc(C)c2)CS(=O)C3)cc1 (centres unmarked)	3.52%
Nc1cccc(C(=O)Nc2ccc3nc(-c4cccnc4)[nH]c3c2)c1	6.12%
O=C(O)c1cccc(NC(=O)C2CC(=O)N(Cc3ccccc3)C2)c1 (centres unmarked)	11.4%
Cc1cccc(NC(=O)CCCN2C(=S)NC(C)(C)CC2C)c1C (centres unmarked)	1.93%
Cn1c(SC2=CS(=O)(=O)c3ccccc32)nc2ccccc21	8.64%
Cc1cccc(NC(=O)C2Cc3ccccc3O/C2=N\O)c1 (centres unmarked)	11.7%
Cc1ccc(C2(c3noc(CN(C)Cc4ccccn4)n3)CCCC2)cc1	8.03%
O=C(CSc1nnnn1C1CCCCC1)Nc1cccc(NC(=O)c2ccco2)c1	7.65%
CC1C(=O)N2CCCc3cc(NC(=O)C(=O)NCc4ccccn4)cc1c32 (centres unmarked)	8.33%
COc1ccccc1C(=O)NCc1ccc2c(c1)OCO2	4.62%
CN(C(=O)COc1ccc(C(C)(C)C)cc1)C1CCS(=O)(=O)C1 (centres unmarked)	-10.4%
O=C(NCc1ccco1)C(Cc1ccccc1)N1C(=O)c2ccccc2C1=O (centres unmarked)	5.71%
COC(=O)C1=C(C)NC(=O)/C1=C\c1cc(C)n(-c2ccc(F)cc2)c1C	7.49%
CC(O)(CS(=O)(=O)Cc1ccccc1)C(=O)Nc1cccc(C(F)(F)F)c1 (centres unmarked)	0.555%
Cc1cc(C(=O)NCC(C)C)c2ccccc2n1	15.1%
O=C(c1ccc([N+](=O)[O-])cc1)N1CCN(C2=NS(=O)(=O)c3ccccc32)CC1	-12.2%
CC(C)C(NC(=O)CC12CC3CC(CC(C3)C1)C2)C(=O)O (centres unmarked)	6.39%
O=C(CC1Sc2ccccc2NC1=O)NCc1cccc(Cl)c1 (centres unmarked)	13.6%
COc1cc2c(cc1OC)CN(S(=O)(=O)c1ccccc1F)CC2	9.63%
CCOc1ccc(/C=C2\CCC(C3CCCC3)C2=O)cc1OC (centres unmarked)	16.8%

— paper PMC4336329 (PLoS ONE, 2015)
